The other results are listed elsewhere or left out. These are further read-outs of the screen, such as a control signal, another cell line or another target. No call is given for them.
Columns and labels:
Assay in all cases: Primary Screen for Target Class Profiling of Small Molecule Inhibitors of Methyltransferases
[1] = molecular target: Glycine N-methyltransferase (Homo sapiens) (UniProt Q14749); conditions: purified enzyme, MTase-Glo SAH luminescence; measured here: GNMT inhibition; at 40 µM; stronger effect = lower value
Summary of the method: (§1)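 Each enzyme was reacted with SAM and its substrate, with compounds tested once at 40 uM; SAH formed was read by MTase-Glo luminescence.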

[2] = molecular target: Guanidinoacetate N-methyltransferase (Homo sapiens) (UniProt Q14353); conditions: purified enzyme, MTase-Glo SAH luminescence; measured here: GAMT inhibition; at 40 µM; stronger effect = lower value
Summary of the method: as §1

[3] = molecular target: Histamine N-methyltransferase (Homo sapiens) (UniProt P50135); conditions: purified enzyme, MTase-Glo SAH luminescence; measured here: HNMT inhibition; at 40 µM; stronger effect = lower value
Summary of the method: as §1

[4] = molecular target: Nicotinamide N-methyltransferase (Homo sapiens) (UniProt P40261); conditions: purified enzyme, MTase-Glo SAH luminescence; measured here: NNMT inhibition; at 40 µM; stronger effect = lower value
Summary of the method: as §1

[5] = molecular target: Phenylethanolamine N-methyltransferase (Homo sapiens) (UniProt P11086); conditions: purified enzyme, MTase-Glo SAH luminescence; measured here: PNMT inhibition; at 40 µM; stronger effect = lower value
Summary of the method: as §1
On the % scale 0 is the no-effect control and ±100 the full control effect.

Row | SMILES | activity change, negative = inhibition [1] | activity change, negative = inhibition [2] | activity change, negative = inhibition [3] | activity change, negative = inhibition [4] | activity change, negative = inhibition [5]
1 | CCCn1c(=O)c2ccccc2n2c(SCC(=O)N3CCN(c4ccccc4F)CC3)nnc12 | -0.541% | 3.89% | 1.8% | -4.18% | -0.208%
2 | COC(=O)C1=CO[C@@H](O[C@@H]2O[C@H](CO)[C@@H](O)[C@H](O)[C@H]2O)[C@H]2[C@@H]1C=C[C@]21C=C([C@H](C)OC(=O)/C=C/c2ccc(O[C@@H]3O[C@H](CO)[C@@H](O)[C@H](O)[C@H]3O)cc2)C(=O)O1 | 2.95% | 3.58% | 10.9% | -9.27% | 6.33%
3 | CC(C)c1ccccc1NC(=O)N1CCOC(C(F)(F)F)C1 (stereo unspecified) | -0.227% | -1.81% | 0.707% | 2.76% | 2.6%
4 | CC(C)n1c(=O)c2ccc(C(=O)NC3CCCCC3)cc2n2c(=O)n(Cc3ccccc3Cl)nc12 | -0.53% | 0% | 3% | 0.367% | 3.97%
5 | CCOCCCNC(=O)C1(C)Cn2c(ccc2-c2ccco2)C(=O)N1c1ccc(C)c(C)c1 (stereo unspecified) | -7.88% | 3.96% | 0.588% | 4.99% | -0.398%
6 | COc1ccccc1CNC(=O)C1(C)Cn2nc(-c3ccccc3)cc2C(=O)N1c1cc(C)cc(C)c1 (stereo unspecified) | 2.27% | 0.774% | -1.47% | 6.97% | -1.78%
7 | CCOc1ccc(CNC(=O)c2ncn3c2C(=O)N(C2CC2)C(C)(C(=O)NCc2ccc(F)cc2)C3)cc1 (stereo unspecified) | -1.23% | 2.94% | 10.3% | 2.66% | 9.99%
8 | O=c1cc(N2CCOCC2)oc2c(-c3ccccc3O)nccc12 | -0.379% | -1.21% | -1.77% | -11.1% | -13.8%
9 | COc1ccc(-c2cc3n(n2)CC(C)(C(=O)NC2CCCCC2)N(Cc2ccco2)C3=O)cc1 (stereo unspecified) | -8.25% | -1.42% | -2.83% | -6.27% | -3.38%
10 | CCCN1CC2(CCN(C)CC2)CC1C(=O)N(C)Cc1nnc(C)o1 (stereo unspecified) | -6.53% | -9.04% | -3.83% | -5.91% | 11%
11 | Cc1ccc(C(=O)Cn2nc3n(CCc4ccccc4)c(=O)c4ccccc4n3c2=O)c(C)c1 | 1.05% | 3.76% | -1.62% | -1.02% | -0.784%
12 | CN(C)CC(c1ccc(O)cc1)C1(O)CCCCC1 (stereo unspecified) | -0.691% | 1.24% | 9.28% | -13.6% | 4%
13 | CC(C)CCn1c(=O)c2ccccc2n2c(CCC(=O)NCc3ccc4c(c3)OCO4)nnc12 | -6.37% | 3.68% | -0.34% | -10.3% | -3.06%
14 | C=CCn1nc(C)c(CN2CC[C@H](N3CCN(C)CC3)[C@H](CCC(=O)O)C2)c1C | -5.91% | -5.75% | -2.06% | -7.61% | -20%
15 | CN1C(=O)c2cc(C(=O)NCc3cccc(Cl)c3)nn2CC1(C)C(=O)NC1CCCC1 (stereo unspecified) | 4.71% | 4.9% | 0.617% | -1.86% | 2.54%
16 | CN1C(=O)c2cc(C(=O)NCCc3ccc(Cl)cc3)nn2CC1(C)C(=O)NC1CCCC1 (stereo unspecified) | 4.12% | 0% | 1.47% | 1.55% | -1.98%
17 | CN(C)[C@@H]1[C@@H](NS(=O)(=O)c2cccc3c2OCCO3)[C@H]2CCO[C@H]21 | -1.24% | 0.179% | 2.15% | -1.75% | 0.025%
18 | COc1ccc(S(=O)(=O)N(CCO)c2ccccc2CN(C)C/C=C/c2ccc(Cl)cc2)cc1 |  | -12.7% |  | -31.6% | -18.5%
19 | COc1cc(F)ccc1-c1nc(-c2c(C)noc2C)cc2[nH]c(C)cc12 | -2.76% | -1.5% | 1.04% | -44.4% | 1.83%
20 | Cc1ccc(-c2nc(CN3CCCC3=O)no2)cc1 | -4.26% | -11.5% | -2.6% | -16.4% | -6.72%
21 | CN1CCN(C(=O)c2nn(C)c3c2CCCC3)CC12CCNC(=O)CC2 (stereo unspecified) | -2.87% | -5.94% | -4.04% | -7.49% | -8.32%
22 | Cc1ccccc1C(C(=O)NC1CCCCC1)N(C(=O)Cn1cnc2ccccc21)c1cccc(F)c1 (stereo unspecified) | -9.74% | -14.6% | -1.63% | -31.7% | -10.5%
23 | COCCCN1C(=O)c2cc(-c3ccc(OC)cc3)nn2CC1(C)C(=O)NCc1ccccc1 (stereo unspecified) | 3.43% | 0.019% | 2.28% | 8.25% | -0.182%
24 | CN1C(=O)c2cc3ccccc3n2CC1(C)C(=O)NCC(=O)NCc1ccccn1 (stereo unspecified) | 2.33% | 0% | 10.7% | 2.28% | 7.01%
25 | CCCn1cc(S(=O)(=O)N2C[C@H](C3CC3)[C@@H](N)C2)cn1 | -3.65% | -6.18% | -1.34% | -6.93% | -6.26%
26 | O=C(Nc1ccccc1Br)N[C@@H]1CCN(c2ccc(C(F)(F)F)cn2)C1 |  | -2.6% |  | -29.5% | -12.5%
27 | CCOC(=O)c1cc2n(n1)CC(C)(C(=O)NCCOC)N(c1cc(Cl)ccc1OC)C2=O (stereo unspecified) | 3.56% | 3.94% | 6.63% | -0.148% | 0.297%
28 | CCc1noc(-c2cn(C3CCN(C(=O)c4cc(Cl)ccc4F)CC3)nn2)n1 | -5.07% | -4.81% | -1.35% | -5.96% | -3.27%
29 | O=C(C1CC1)N(C1CCOCC1)C1CCN(S(=O)(=O)C2CC2)CC1 | -0.228% | -6.58% | 0.337% | -10.2% | -24.9%
30 | CCCN1CCN(C(=O)Cn2c(=O)oc3cc(S(=O)(=O)NCc4ccccc4)ccc32)CC1 | -5.04% | 0.402% | -0.142% | 3.6% | -3.56%
